Here are results for 25 compounds from ChEMBL document CHEMBL1157539, “Thousands of chemical starting points for antimalarial lead identification” (Nature, 2010).

Molecules are shown by their SMILES. In all, about 13,000 compounds were measured (“IFI”: median about 4, highest 2% from about 17 on). Some of the results follow.

The nature of the assay: GSK_TCMDC: Inhibition Frequency Index (IFI). The number of non-kinase HTS assays where a compound showed > 50 % inhibition, expressed as a percentage of the number of such assays in which the compound was tested (-0 is zero). It is filed as functional.
In turn, `CC(=O)Nc1ccc(OCCCN(Cc2ccccc2C(F)(F)F)c2ccc(C(F)(F)F)c(C#N)c2)c(Cl)c1` registered an IFI of -0%. For `CC(C)(C)CNCC(C)(C)c1nc(-c2ccc(Cl)c(O)c2)c(-c2ccncc2)[nH]1` the value was 3.62%; for `Fc1ccccc1COc1ccc(Nc2ncnc3ccc(-c4nnc(C(F)(F)F)o4)cc23)cc1Cl`, 1.46%; for `O=C(/C=C/c1ccc(-c2nc3ccc(Cl)cc3[nH]2)cc1)NC1CCN(Cc2ccccc2)CC1`, 1.45%. As to `Cc1cc(NC(=O)Nc2ccc(I)c(OCCN(C)C)c2)ccc1Br`, the IFI turned out to be 5.8%.

Turning to `CCN(CC)/C(=N/C(=N)Nc1ccc(Cl)c(Cl)c1)NCCCCCCN/C(=N\C(=N)Nc1ccc(Cl)c(Cl)c1)N(CC)CC`, the IFI worked out at 9.35%. On to `CN(C)CCOc1ccc(/C(=C(/CCCn2ccnc2)c2ccccc2)c2ccc(O)cc2)cc1`, for which the IFI is 12.5%.

For the compound `COc1cc(Cc2cnc(N)nc2N)cc(OCCNC(=O)OCc2ccccc2)c1OC`, the IFI is 0.76%. `CC(C)CCN1CCCN(Cc2cccc(NC(=O)c3ccc(Cl)c(Cl)c3)c2)CC1` showed an IFI of 6.04%.

As to `C[C@H](Cc1ccc(OCCCCCCOc2ccc(C[C@@H](C)NC(=O)[C@H](O)c3cccc(Cl)c3)cc2)cc1)NC[C@H](O)c1cccc(Cl)c1`, the IFI came to 11.3%. For the compound `N=C(N)c1cc(Br)cc(NC(=O)Nc2cc(Br)cc(C(=N)N)c2)c1`, the IFI was found to be 2.92%.

`COc1cc(C(=O)Nc2cccc(-c3nc4ccccc4[nH]3)c2)cc(OC)c1OC` showed an IFI of 4.32%.

`CN/C(=C\[N+](=O)[O-])NCCSCc1cc(C)c(CN(C)C)s1` had an IFI of 4.38%.

`COc1ccc2ncc(Cl)c(CCN3CCC(NCc4ccc5c(n4)NC(=O)CS5)CC3)c2c1`: the IFI turned out to be 4.41%.

Consider `O=C(Nc1ccc(OC2CCN(Cc3ccc(F)cc3)C2)c(Cl)c1)c1ccccc1` (stereo not given), for which the IFI was 1.61%. The compound `Nc1ccc(-c2ccc(NC(=O)Nc3ccccc3)cc2)cn1` yielded an IFI of 1.33%.

The compound `Cc1[nH]cnc1Cc1ccc2c(c1O)c1ccccc1n2C` gave an IFI of 4.38%. On to `Cc1cccc(S(=O)(=O)Nc2cccc(CCN3CCC(N4CCCCC4)CC3)c2)c1`, for which the IFI worked out at 3.17%. Regarding `CCCc1cc(Cc2cnc(N)nc2N)cc(CC)c1OC`, the IFI was 1.52%. Turning to `N#Cc1cccc(NC(=O)Nc2ccc3c(c2)CN(Cc2c[nH]c4ncccc24)C3)c1`, the IFI was found to be 3.4%.

For `Oc1ccccc1Nc1nc(NCc2ccco2)c2ccccc2n1`, the IFI is 7.32%. Take `CC1(C)NC(N)=NC(=N)N1OCCCNC(=O)c1ccc(C(=O)NCCCON2C(=N)N=C(N)NC2(C)C)cc1`: the IFI was 0.75%. For `CCN(CC)CCCN(C(=O)Nc1cc(F)cc(F)c1)c1nc(-c2ccc(F)cc2)cs1` the value was 7.32%; for `Fc1ccc2[nH]c(-c3ccc(-c4ccc(CN5CCCCC5)cc4)s3)nc2c1`, 2.82%; for `COc1ccc2ncc(F)c(CCN3CC4CCCC4(CNCc4ccc5c(n4)NC(=O)CS5)C3)c2n1` (stereo not given), 0.94%.
